Test results taken from PubChem BioAssay AID200 (DTP/NCI, 2004).
Toxic doses and inconclusive results are not listed. Some entries of the source have several records that differ or are many. This is not the full list of results. The source may hold further records. Values given together differ for a reason that is not stated; dose, time, organism, isomer or construct need not be as stated for each record.

Test system: B6C3F1 mice, B16 melanoma ip, median survival T/C
Test: NCI In Vivo Anticancer Drug Screen. Data for tumor model B16 Melanoma (intraperitoneal) in B6C3F1 mice
Settings: endpoint: median survival time, higher = longer survival
Description: The antitumor activity of compounds was measured in mice bearing transplantable tumors. Survival or tumor size were measured and the results are expressed as the measurement made in the treated group (T) divided by the measurement made in the vehicle treated control group (C). The tumor model used in this assay is B16 Melanoma (intraperitoneal) in B6C3F1 mice

[1] = dose: 50.0 mg/kg/injection, schedule: Q01DX009 (ip), vehicle: saline with Tween-80

O=NN(CCCl)C(=O)NCCCl
T/C (dose: 32.0 mg/kg/injection, schedule: Q01DX001 (ip), vehicle: saline): 117 % of control and 154 % of control

NC(=S)N/N=C\c1ncccc1OCc1cccc(N)c1
T/C [1]: 107 % of control, 124 % of control, 169 % of control

C=Cc1cc(OC)c2c(c1)c(=O)oc1c2cc(OC)c2c(O)ccc(C3OC(C)C(O)C(C)(O)C3O)c21 (configuration not stated)
T/C (dose: 10.0 mg/kg/injection, schedule: Q01DX009 (ip), vehicle: DMSO): 120 % of control and 152 % of control

O=C(Nc1ccc([N+](=O)[O-])cc1)Nc1nccs1
T/C (dose: 50.0 mg/kg/injection, schedule: Q01DX009 (ip), vehicle: distilled water + Tween-80): 118 % of control and 170 % of control

COC1CC2C=C(C)/C=C/C=C/C(=O)NC(c3ccccc3)C/C=C/CCC(O)CC(=O)C2=C1O (configuration not stated)
T/C (dose: 12.5 mg/kg/injection, schedule: Q01DX009 (ip), vehicle: Klucel (hydroxypropylcellulose) (HPC)): 119 % of control and 181 % of control

c1ccc(OCC2CO2)c(OCC2CO2)c1 (configuration not stated)
T/C [1]: 121 % of control and 162 % of control

CC(C)NC(=O)OCc1c(COC(=O)NC(C)C)c(-c2ccc(Cl)c(Cl)c2)n2c1CC(OC(=O)CN(C)C)C2 (configuration not stated)
T/C (dose: 5.0 mg/kg/injection, schedule: Q01DX009 (ip), vehicle: distilled water + Tween-80): 106 % of control and 155 % of control
